target: human Cav2.2 (Homo sapiens, UniProt Q00975); assay: In vitro assessment of calcium channel activity using FLIPR (Ca2+ influx in IMR32 cells); format: cell-based; conditions: IMR32 cells endogenously expressing human Cav2.2; 60 minute pre-incubation; 2 μM nifedipine; depolarized with 80 mM KCl; average of at least two runs unless marked (*)

Question: How did the IC50 turn out when `O=C(c1cc(OC(F)(F)F)ccc1F)N1CCN2C[C@H](Oc3cnc(C4CC4)cn3)C[C@H]2C1` [Example 123, [(7R,8aS)-7-[(5-cyclopropylpyrazin-2-yl)oxy]hexahydropyrrolo[1,2-a]-pyrazin-2(1H)-yl][2-fluoro-5-(trifluoromethoxy)phenyl]methanone] was run?
Answer: Its IC50 is 1090 nM.

Question: How did the IC50 turn out when `O=C(c1cccc(OC(F)F)c1)N1CCN2C[C@H](Oc3cnc(C4CC4)cn3)C[C@H]2C1` [Example 124, [(7R,8aS)-7-[(5-cyclopropylpyrazin-2-yl)oxy]hexahydropyrrolo[1,2-a]-pyrazin-2(1H)-yl][3-(difluoromethoxy)phenyl]methanone] was run?
Answer: Its IC50 is 1940 nM.

Question: With `O=C(Cc1ccc(F)c(C(F)(F)F)c1)N1CCN2C[C@H](Oc3cnc(C4CC4)cn3)C[C@H]2C1` [Example 125, 1-[(7R,8aS)-7-[(5-cyclopropylpyrazin-2-yl)oxy]hexahydropyrrolo[1,2-a]-pyrazin-2(1H)-yl]-2-[4-fluoro-3-(trifluoromethyl)phenyl]ethanone] as the compound, how does the IC50 read?
Answer: The IC50 was 770 nM.

Question: With `O=C(c1ccc2c(c1)OC(F)(F)O2)N1CCN2C[C@H](Oc3cnc(C4CC4)cn3)C[C@H]2C1` [Example 126, [(7R,8aS)-7-[(5-cyclopropylpyrazin-2-yl)oxy]hexahydropyrrolo[1,2-a]-pyrazin-2(1H)-yl](2,2-difluoro-1,3-benzodioxol-5-yl)methanone] as the compound, how does the IC50 read?
Answer: Its IC50 is 1650 nM.

Question: With `Cc1ccc(C)n1-c1cccc(C(=O)N2CCN3C[C@H](Oc4cnc(C5CC5)cn4)C[C@H]3C2)c1` [Example 127, [(7R,8aS)-7-[(5-cyclopropylpyrazin-2-yl)oxy]hexahydropyrrolo[1,2-a]-pyrazin-2(1H)-yl][3-(2,5-dimethyl-1H-pyrrol-1-yl)phenyl]methanone] as the compound, how does the IC50 read?
Answer: The IC50 was 1480 nM.

Question: With `CC(C)(O)c1cccc(C(=O)N2CCN3C[C@H](Oc4cnc(C5CC5)cn4)C[C@H]3C2)c1` [Example 128, [(7R,8aS)-7-[(5-cyclopropylpyrazin-2-yl)oxy]hexahydropyrrolo[1,2-a]-pyrazin-2(1H)-yl][3-(2-hydroxypropan-2-yl)phenyl]methanone] as the compound, how does the IC50 read?
Answer: The IC50 was 7780 nM.

Question: With `O=C(c1cccc(N2CCCCC2)c1)N1CCN2C[C@H](Oc3cnc(C4CC4)cn3)C[C@H]2C1` [Example 129, [(7R,8aS)-7-[(5-cyclopropylpyrazin-2-yl)oxy]hexahydropyrrolo[1,2-a]-pyrazin-2(1H)-yl][3-(piperidin-1-yl)phenyl]methanone] as the compound, how does the IC50 read?
Answer: The IC50 was 6510 nM.

Question: Which IC50 does the source give for `O=C(Sc1ccc(C(F)(F)F)cn1)N1CCN2C[C@H](Oc3cnc(C4CC4)cn3)C[C@H]2C1` [Example 130] here?
Answer: Its IC50 is 1000 nM.

Question: For `O=C(Cc1ccc(Cl)c(C(F)(F)F)c1)N1CCN2C[C@H](Oc3cnc(C4CC4)cn3)C[C@H]2C1` [Example 131, 2-[4-chloro-3-(trifluoromethyl)phenyl]-1-[(7R,8aS)-7-[(5-cyclopropyl-pyrazin-2-yl)oxy]hexahydropyrrolo[1,2-a]pyrazin-2(1H)-yl]ethanone], which IC50 is on record?
Answer: Its IC50 is 540 nM.

Question: How did the IC50 turn out when `O=C(c1ccc(F)c(OC(F)(F)F)c1)N1CCN2C[C@H](Oc3cnc(C4CC4)cn3)C[C@H]2C1` [Example 132, [(7R,8aS)-7-[(5-cyclopropylpyrazin-2-yl)oxy]hexahydropyrrolo[1,2-a]-pyrazin-2(1H)-yl][4-fluoro-3-(trifluoromethoxy)phenyl]methanone] was run?
Answer: Its IC50 is 1610 nM.

Question: How did the IC50 turn out when `O=C(c1ccc(Cl)c(OC(F)(F)F)c1)N1CCN2C[C@H](Oc3cnc(C4CC4)cn3)C[C@H]2C1` [Example 133, [4-chloro-3-(trifluoromethoxy)phenyl][(7R,8aS)-7-[(5-cyclopropylpyrazin-2-yl)oxy]hexahydropyrrolo[1,2-a]pyrazin-2(1H)-yl]methanone] was run?
Answer: Its IC50 is 920 nM.

Question: How did the IC50 turn out when `O=C(Cc1cccc(C(F)(F)F)c1)N1CCN2C[C@H](Oc3cnc(C4CC4)cn3)C[C@H]2C1` [Example 134, 1-[(7R,8aS)-7-[(5-cyclopropylpyrazin-2-yl)oxy]hexahydropyrrolo[1,2-a]-pyrazin-2(1H)-yl]-2-[3-(trifluoromethyl)phenyl]ethanone] was run?
Answer: Its IC50 is 380 nM.

Reference: patent publication US8669255B2, “Substituted octahydropyrrolo[1,2-a]pyrazines as calcium channel blockers” (AbbVie Inc., priority 2011, dated 2014)
